Out of some 310,000 compounds screened, about 2,200 (0.71%) showed an effect of 50% or more. Effects have a minus sign here. The list shows a part of the results.
molecular target: human ether-à-go-go-related gene (hERG) potassium channel (human, UniProt Q12809); test: primary screen, population patch clamp on CHO cells stably expressing hERG
Sequence (Q12809 whole entry, looked up): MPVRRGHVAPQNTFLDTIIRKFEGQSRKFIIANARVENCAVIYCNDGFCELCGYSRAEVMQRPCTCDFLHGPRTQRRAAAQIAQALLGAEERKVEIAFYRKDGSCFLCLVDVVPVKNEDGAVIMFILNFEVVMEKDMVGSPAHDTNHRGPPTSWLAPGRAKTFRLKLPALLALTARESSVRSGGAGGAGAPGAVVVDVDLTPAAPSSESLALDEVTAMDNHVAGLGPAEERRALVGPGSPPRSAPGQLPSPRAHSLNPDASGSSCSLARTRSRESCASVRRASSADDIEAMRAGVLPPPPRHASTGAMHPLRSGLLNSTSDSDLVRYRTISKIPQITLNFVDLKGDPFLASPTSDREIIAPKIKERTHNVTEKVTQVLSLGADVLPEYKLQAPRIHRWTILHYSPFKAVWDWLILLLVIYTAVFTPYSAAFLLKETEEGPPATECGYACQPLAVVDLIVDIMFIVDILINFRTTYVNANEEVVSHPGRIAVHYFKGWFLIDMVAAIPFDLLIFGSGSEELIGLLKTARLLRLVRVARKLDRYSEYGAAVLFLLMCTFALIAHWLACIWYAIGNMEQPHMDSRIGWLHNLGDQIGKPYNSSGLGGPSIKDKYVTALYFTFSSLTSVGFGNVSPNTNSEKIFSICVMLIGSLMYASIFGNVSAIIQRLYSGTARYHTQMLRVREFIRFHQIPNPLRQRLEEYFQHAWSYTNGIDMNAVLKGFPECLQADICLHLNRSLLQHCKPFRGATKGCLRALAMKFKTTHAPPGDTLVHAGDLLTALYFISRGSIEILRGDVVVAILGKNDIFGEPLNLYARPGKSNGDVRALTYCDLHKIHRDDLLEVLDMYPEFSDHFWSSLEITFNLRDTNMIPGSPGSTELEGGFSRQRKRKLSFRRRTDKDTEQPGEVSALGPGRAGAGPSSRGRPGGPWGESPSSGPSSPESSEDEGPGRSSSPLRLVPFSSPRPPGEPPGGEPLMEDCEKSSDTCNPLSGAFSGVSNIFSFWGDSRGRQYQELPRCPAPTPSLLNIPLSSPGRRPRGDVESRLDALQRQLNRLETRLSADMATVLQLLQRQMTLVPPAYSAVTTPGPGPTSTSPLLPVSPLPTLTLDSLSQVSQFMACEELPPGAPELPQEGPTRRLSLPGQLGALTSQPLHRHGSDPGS

Row | Structure (SMILES) | hERG current change (%, negative = inhibition) at 1uM [%]
1 | CCOC(=O)[C@H]1[C@H]2COc3ccc(OC)cc3[C@@H]2N2C(=O)c3ccc(F)cc3NC(=O)[C@@]12C | 11.1
2 | COc1ccccc1/C=C(/C(=O)NCCCn1ccnc1)c1ccccc1 | 2.39
3 | O=C(Cn1c2c(sc1=O)C1c3ccccc3OCC1CS2)Nc1ccc(Cl)c(Cl)c1 (stereo not drawn) | 11.2
4 | COc1ccc2nc3ccccc3nc2c1NC(=O)c1ccc(Br)cc1 | 9.67
5 | COc1ccc(C(=O)NCCc2cc3ccc(C)c(C)c3[nH]c2=O)cc1OC | -5.3
6 | CCOC(=O)C1=C(O)C(=O)N(C2CCCCC2)C1 | 8.72
7 | CCn1ccc(C(=O)Nc2ncc(C)s2)n1 | 5.86
8 | COc1ccc(CN(CC(=O)NC2CCCC2)C(=O)CN2C(=O)COc3ccccc32)cc1 | -25.7
9 | CC(Oc1ccc2c(-c3ccccc3)cc(=O)oc2c1)C(=O)N1CCC[C@@H]1C(N)=O (stereo partly drawn) | 4.5
10 | CN1C(=O)C(O)N=C(c2ccccc2)c2ccccc21 (stereo not drawn) | 3.74
11 | CC(=O)Nc1ccc(S(=O)(=O)N2CCC(C(=O)O)CC2)cc1 | 17.1
12 | COC(=O)c1ccc(NC(=O)C2CC3CCC2C3)cc1 (stereo not drawn) | 8.97
13 | CCOC(=O)C1=C(N)OC2=C(C(=O)CCC2)C12C(=O)Nc1ccccc12 (stereo not drawn) | 6.93
14 | CCOC(=O)c1c(NC(=O)CSc2nnc(C)s2)sc2c1CCC(CC)C2 (stereo not drawn) | 10.2
15 | CCn1c(=O)c(=O)n(CC)c2cc(S(=O)(=O)N3CCc4ccccc43)ccc21 | -6.87
16 | O=C(C[n+]1cccc(Br)c1)c1ccccc1.[Br-] | 15.1
17 | CSc1ccc(/C=N/NC(=O)CN2CCN(Cc3ccc(Cl)cc3)CC2)cc1 | 2.29
18 | O=C(Oc1cccc(-n2cnnn2)c1)c1ccco1 | 7.81
19 | Clc1nc2ccccc2cc1-c1nnn(-c2ccccc2Br)n1 | 0.846

Row | Structure (SMILES) | hERG current change (%, negative = inhibition) at 1uM [%]
20 | N=c1c(S(=O)(=O)c2ccccc2)cc2c(=O)n3ccccc3nc2n1CCCN1CCOCC1 | -42.5
21 | COc1cc(/C=C2\SC(N)=NC2=O)cc(Br)c1O | -2.35
22 | C=CCn1c2[n+](c3ccccc3c1=O)CCCCC2.[I-] | -7.36
23 | COc1ccc(-c2c(C#N)c(SCc3c(C)noc3C)nc3c2C(=O)CC(C)(C)C3)cc1 | 7.35
24 | Nc1nc(-c2ccc(Oc3ccccc3)cc2)c(CC(=O)O)s1 | 1.25
25 | Cc1ccc(C)c(N2CCN(C(=O)c3ccc(CS(=O)(=O)c4ccccc4C)o3)CC2)c1 | -11.8
26 | Cc1nc2c(sc(=S)n2Cc2ccco2)c(=O)n1CC(=O)Nc1cc(F)ccc1F | 9.47
27 | CCc1nc(Nc2ccncc2)c2oc3ccccc3c2n1.Cl | -9.07
28 | Cc1cc(C)nc(NC(=O)Cc2cccs2)n1 | 0.635
29 | CC1CCN(CCCCOc2ccc(Br)cc2)CC1 | -30.4
30 | CCOC(=O)c1cnc2cc(C)nn2c1C | 4.13
31 | Cc1ccc(C(=O)Nc2cc3c(cc2N2CCCCC2)n(C)c(=O)n3C)cc1 | 17.2
32 | COC(=O)c1cc(Br)c(=O)n(-c2ccc(F)cc2)c1 | -70.1
33 | O=C(CSc1nncn1-c1ccccc1)c1c[nH]c2ccccc12 | 17.1
34 | COc1ccccc1C(=O)Nc1cc(C)ccc1NC(=O)c1ccco1 | 0.153
35 | CC(C)NC(=O)c1ccc(N2CC3CC(C2)c2cccc(=O)n2C3)c([N+](=O)[O-])c1 (stereo not drawn) | 4.18
36 | O=C(c1sc2cc(F)ccc2c1Cl)N1CCN(c2cccc(Cl)c2)CC1 | 0.771
37 | Cc1cc(C)n2c(SCC(=O)NCc3ccco3)nnc2n1 | 16
38 | O=C(NNC(=O)C12CC3CC(CC(C3)C1)C2)c1csc(N2CCOCC2)n1 | 7.88

Row | Structure (SMILES) | hERG current change (%, negative = inhibition) at 1uM [%]
39 | CC(C)NC(=O)Nc1ccc(Br)cc1Cl | 19
40 | Cc1ccc(OCC(=O)n2nc(C)cc2C)c(Br)c1 | 4.1
41 | CC(C)(C)c1ccc(C(=O)N2CCC(C(=O)NCCC3=CCCCC3)CC2)cc1 | 6.86
42 | N#Cc1ccc(-c2cccnc2)nc1SCC(=O)c1ccccc1 | 6.32
43 | CCC/S(C)=N/S(=O)(=O)c1ccc(C)cc1 (stereo not drawn) | -3.88
44 | Cc1ccccc1NC(=O)CN1CCN(C(=O)c2ccco2)CC1 | 5.5
45 | CN(C)S(=O)(=O)c1ccc(C(=O)OCCN=C2NS(=O)(=O)c3ccccc32)cc1 | 10
46 | CC1(C)CC(=O)C=C(NCCCN2CCCC2=O)C1 | -0.322
47 | COc1ccccc1-c1nnc(SCC(=O)OC(C)C)o1 | 7.42
48 | NP(=O)(Oc1ccccc1Cl)Oc1ccccc1Cl | 10.4
49 | COc1ccc(C(=O)Nc2cccc(NC(=O)c3cccs3)c2)cc1OC | 11.4
50 | Cc1cc(C)c(-n2c(SCc3nc4ccccc4s3)n[nH]c2=O)c(C)c1 | 5.05
51 | Cc1cc(C)cc(NC(=O)COc2ccc3c(C)c(Cc4ccccc4)c(=O)oc3c2)c1 | 5.12
52 | O=C(COC(=O)CCc1ccc(S(=O)(=O)N2CCCCC2)cc1)Nc1ccc2c(c1)OCO2 | 10
53 | COc1ccc(NC(=O)CSc2nnc(NC(=O)C3CCC3)s2)cc1 | 11.8
54 | Cc1cc(C(=O)Nc2ccc(S(=O)(=O)N3CCCC3)cc2)cs1 | -5.21
55 | CN(C)C(=O)CNc1n[nH]c(=S)[nH]c1=O | 10.7
56 | COc1ccc(-c2nnc(SCC(=O)Nc3cccc(Cl)c3)o2)cc1 | -21.1
57 | Cc1cc(C)cc(NC(=O)c2ccccc2CC[N+](=O)[O-])c1 | 7.79

— PMC4336329 (PLoS ONE, 2015)
